# Assay results published in the supplement of paper PMC3334620.
# The full ranking holds about 33,000 sequences; the median of “E-score (-0.5 to 0.5)” is about -0.053, and the highest 2% start at about 0.37. The list shows a part of the results.
# Target: Hap1 (UniProt P0CE41)
# Assay: PBM E-score (8-mer binding enrichment) (E-score (-0.5 to 0.5)); higher = stronger / more preferred TF binding; most listed sequences are background and not binding sites
# Conditions: protein concentration: 200 nM; construct: GST-DNA-binding domain
# Summary of the method: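 E-scores (a modified Wilcoxon-Mann-Whitney statistic) were assigned by the Universal PBM Analysis Suite to every ungapped eight-base word pooled with its reverse complement. The input came from universal all-10-mer Agilent arrays made double-stranded by primer extension and probed with GST-tagged yeast transcription factors at about 100-200 nM. Fluorescent anti-GST detected bound protein, and masliner normalised the scans.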
# UniProt P0CE41, sequence (P0CE41 whole entry): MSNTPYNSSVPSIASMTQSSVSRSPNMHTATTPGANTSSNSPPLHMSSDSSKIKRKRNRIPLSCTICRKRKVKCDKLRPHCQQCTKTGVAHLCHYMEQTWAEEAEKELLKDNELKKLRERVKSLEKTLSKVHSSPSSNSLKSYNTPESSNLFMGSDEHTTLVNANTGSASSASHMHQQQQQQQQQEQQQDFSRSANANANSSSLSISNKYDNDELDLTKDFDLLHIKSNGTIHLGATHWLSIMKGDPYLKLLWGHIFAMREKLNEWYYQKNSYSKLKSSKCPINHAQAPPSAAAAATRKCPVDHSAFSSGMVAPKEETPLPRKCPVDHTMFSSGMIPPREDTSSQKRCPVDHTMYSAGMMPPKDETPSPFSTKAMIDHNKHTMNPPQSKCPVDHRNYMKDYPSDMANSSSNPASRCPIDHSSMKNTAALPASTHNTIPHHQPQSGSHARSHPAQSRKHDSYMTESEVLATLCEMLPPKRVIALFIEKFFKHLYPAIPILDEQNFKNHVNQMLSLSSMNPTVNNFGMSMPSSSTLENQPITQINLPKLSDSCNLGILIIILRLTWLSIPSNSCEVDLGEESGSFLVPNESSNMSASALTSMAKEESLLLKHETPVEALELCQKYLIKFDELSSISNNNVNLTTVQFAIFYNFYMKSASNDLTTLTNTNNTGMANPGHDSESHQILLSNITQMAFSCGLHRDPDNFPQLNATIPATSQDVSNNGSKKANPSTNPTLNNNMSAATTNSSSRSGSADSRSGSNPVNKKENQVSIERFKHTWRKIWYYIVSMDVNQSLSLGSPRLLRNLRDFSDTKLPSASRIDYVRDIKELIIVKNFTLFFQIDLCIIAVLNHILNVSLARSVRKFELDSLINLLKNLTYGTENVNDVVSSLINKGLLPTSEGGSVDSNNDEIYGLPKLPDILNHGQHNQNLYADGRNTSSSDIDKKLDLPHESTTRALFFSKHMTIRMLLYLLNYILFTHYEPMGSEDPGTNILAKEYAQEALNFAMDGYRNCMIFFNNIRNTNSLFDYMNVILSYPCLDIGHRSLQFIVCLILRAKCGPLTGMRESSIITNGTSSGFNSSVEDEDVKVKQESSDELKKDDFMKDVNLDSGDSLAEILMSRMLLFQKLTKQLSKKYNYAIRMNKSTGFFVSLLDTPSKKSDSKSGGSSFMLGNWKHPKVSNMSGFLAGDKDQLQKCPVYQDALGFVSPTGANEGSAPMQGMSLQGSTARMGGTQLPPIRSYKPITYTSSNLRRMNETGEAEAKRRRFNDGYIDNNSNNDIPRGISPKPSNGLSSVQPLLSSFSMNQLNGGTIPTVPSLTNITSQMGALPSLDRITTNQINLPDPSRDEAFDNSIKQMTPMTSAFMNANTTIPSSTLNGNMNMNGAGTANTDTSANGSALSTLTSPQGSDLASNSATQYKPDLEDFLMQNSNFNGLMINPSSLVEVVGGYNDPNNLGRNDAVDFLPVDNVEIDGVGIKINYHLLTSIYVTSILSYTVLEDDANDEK
row,Sequence,PBM E-score
1,GTACCTGA,-0.173
2,AAGCACTG,-0.191
3,CGGCCATC,0.203
4,ACGAATCA,-0.0743
5,AATATGCT,-0.0232
6,CAATCCTC,-0.201
7,AGTGGGGG,-0.115
8,AGAAGTTG,-0.274
9,ATGGAGCC,-0.2
10,TAATGTGA,-0.0906
11,CACCGGCG,0.378
12,AACCTGAT,-0.183
13,AATACTGT,-0.107
14,CCAGCTTA,-0.0626
15,AATATAAG,0.0718
16,GGCAGAGA,0.0377
17,TGACGCAA,-0.15
18,AACTGCAT,-0.128
19,ATGTCCAG,-0.0469
20,AGAGATGC,-0.0947
21,ATCCGGAT,0.414
22,ATCCGGTA,0.357
23,AGAATTTC,-0.0624
24,ACCGTACG,-0.072
25,GGATCGAC,0.17

row,Sequence,PBM E-score
1,ATTTGAAA,-0.0416
2,ACAACCCT,-0.155
3,ACATCAAA,0.0314
4,CCAAAGGA,-0.228
5,CAGTCCAC,-0.272
6,CCAGGTAG,-0.121
7,ATCAGGAT,0.00952
8,CTTCAAAG,-0.142
9,ATGTACAG,-0.0525
10,CAATTCGA,-0.29
11,GCTTATCC,0.163
12,CGACGTAG,-0.0488
13,ACTAAAGA,-0.168
14,CAGTTTTA,-0.17
15,ACCCTAGA,-0.219
16,GGACCGCA,0.186
17,ACTCAACA,-0.159
18,CGTGAGGA,-0.0956
19,AGACGCAG,-0.0687
20,CTTACCGC,0.233
21,CTACCAAC,-0.274
22,AGTTACCC,0.121
23,GCCAATGA,-0.242
24,GACGCTGC,-0.138
25,GAACGTTC,-0.0378

row,Sequence,PBM E-score
1,GAGCGTAC,-0.188
2,AGCGATTA,0.217
3,ATTGCCAC,-0.195
4,AGCCGAAG,0.227
5,ATCCATGA,-0.134
6,CAGGACCA,-0.0254
7,CCGTGGCC,0.198
8,CTGAAAAG,0.0193
9,CTGAGCAA,-0.266
10,CCTTGCAC,-0.128
11,CAGATCTC,-0.106
12,AGGCTCCC,-0.0528
13,ACCAAAAA,0.0683
14,AGCACACC,-0.0307
15,AACCAAAC,-0.118
16,ATTTAGGC,-0.129
17,GACGTCTC,-0.14
18,GAGTGAAA,-0.0897
19,TCCAACCA,-0.125
20,ATCTAGGG,-0.305
21,ATCGTGCC,0.0652
22,CGTAGTTC,0.016
23,GGTTAAAC,0.145
24,GCCGAGGC,0.341
25,ATTTGGGC,-0.144

row,Sequence,PBM E-score
1,CGAGCACG,0.153
2,AGCGAGAT,0.15
3,ATCGCTTC,-0.0291
4,CTTAAGGC,0.00611
5,GCAAACCA,-0.133
6,CCTACAGA,-0.294
7,ATCCTAGG,-0.143
8,ACCCCGGT,0.366
9,CTGGAGCC,0.00891
10,AATGGGGT,0.018
11,AACCAAGG,-0.259
12,GCCTCAAA,0.0701
13,AAAGGCGT,-0.14
14,CTGCAGGC,-0.137
15,GCTAAACA,-0.131
16,CTATGCCA,-0.308
17,GGTTATAA,0.244
18,CAACCACG,-0.156
19,CGAGGATA,0.0703
20,ATCGTGGA,-0.0642
21,GAAGCGAC,-0.0556
22,AAGCCTAT,-0.101
23,CATGCTCA,-0.154
24,AGCCTTCG,-0.0886
25,CATGCCTC,-0.0568

row,Sequence,PBM E-score
1,GTAGCTAA,0.045
2,CAGGCAGA,-0.18
3,CTAGCGGC,0.0447
4,GCCGCGTA,0.0919
5,AGTAGGCC,6e-05
6,AACTGGTC,0.0858
7,AGAGGGTG,-0.122
8,ACCAGCTA,-0.145
9,ATTATCCC,0.0666
10,ATGCGCAA,0.00433
11,CGTGAAAG,-0.077
12,ACTGCCCA,-0.0432
13,CTAAGTGC,-0.0465
14,CCATAGGG,-0.122
15,AGATGATC,-0.00964
16,GTCTGCGA,-0.259
17,AGTCGTCG,-0.132
18,TGCAAGCA,-0.091
19,CGTCATTC,0.0302
20,CATTTCAG,-0.268
21,GCCGCAGA,0.184
22,GCTCGCCA,-0.0148
23,ACTGGTAA,-0.127
24,GCTCCCAA,-0.226
25,AAACGTGA,-0.249

row,Sequence,PBM E-score
1,AGCAGTTG,-0.0263
2,AATGCTTG,-0.14
3,TTGCTAAA,-0.0806
4,GTCCGCCA,0.166
5,GCAGATGC,-0.119
6,TAACAAAA,-0.123
7,AAGCCAAT,-0.0333
8,CACAGGCG,-0.132
9,TCGTTGCA,-0.218
10,GGCCACAC,0.112
11,ACATTGTA,-0.159
12,CTCGATTA,0.0285
13,CGGGCGTC,0.296
14,CGGAGAGC,0.216
15,AGCTAAAT,-0.0923
16,GAAAACTA,0.117
17,ATATGGCC,0.157
18,AGAGTTGC,0.0723
19,GGAAACAC,0.186
20,ACGTGGCT,-0.17
21,GCAAGGCA,-0.163
22,AACACACG,-0.176
23,TGCACCAA,-0.395
24,AGGCTGCC,-0.154
25,TATGTTCA,-0.114

row,Sequence,PBM E-score
1,CATACACC,0.0763
2,AACGTTGA,0.0612
3,CAAGGGTA,-0.149
4,CGATTGTA,0.145
5,ATTGCCTC,-0.0685
6,CCTATTAC,-0.148
7,CGCGATCA,0.0619
8,CTCTCCAC,-0.241
9,ACGTTTCT,-0.242
10,GCGAATGA,0.117
11,AATCCAAC,-0.164
12,CACCTCTG,-0.231
13,ACGACCCT,0.0604
14,AGGTGGTA,0.0654
15,ACTTTCTG,-0.0792
16,CGACGAAC,0.176
17,CGCTTATA,0.234
18,CGTCTTTC,-0.117
19,AAGCAAAG,-0.0931
20,AGATGCCC,-0.12
21,CTGTGTCA,-0.0957
22,GCAGTAGA,-0.3
23,CACTCCAC,-0.268
24,AGACTCCT,-0.212
25,ATCTAGGC,-0.266

row,Sequence,PBM E-score
1,TCACGAAA,-0.114
2,ACGCTTCG,0.122
3,CGCCGGCC,0.396
4,ACCGCGGC,0.259
5,ACTACCGC,0.0612
6,CAACCTGC,0.0857
7,AAGGCTCG,-0.155
8,CCCTTCGG,0.33
9,AGACTCCC,-0.237
10,TGCCTCAA,-0.0297
11,GCACTGGA,-0.275
12,GATCGCTA,-0.0446
13,AAAGTAGA,-0.235
14,CCTGCTCG,-0.0416
15,CTCGACGA,-0.328
16,CTCAGGGA,-0.239
17,GCCAATCC,0.189
18,ATGCGGCA,0.0207
19,TATGATAA,-0.0526
20,AAACGCAT,-0.304
21,TCGGGAAA,0.296
22,GTCTAATA,-0.0822
23,ATAATCAA,0.131
24,CCATCCGA,0.226
25,ATTTGACA,-0.128

row,Sequence,PBM E-score
1,GCAATTTA,-0.00427
2,AGAGTGCC,-0.173
3,CGGCGGAG,0.387
4,CTAAGGGC,-0.143
5,TATTGGAA,-0.295
6,ACTTTACA,-0.0622
7,AGGCTCGG,0.23
8,ATTGCCGG,0.368
9,CAGCGCAC,-0.112
10,CGCTCTAC,-0.24
11,CGGATAAA,0.381
12,CCCGACTA,0.259
13,GCAGGGGC,-0.239
14,AGAAACCG,0.245
15,GTCTGATA,-0.252
16,ACCTCAAT,-0.25
17,TAATTGGA,-0.0733
18,AAGTGATA,-0.166
19,AAGTTTCG,0.108
20,AGTACTTG,-0.193
21,CGAATATA,0.175
22,CGATCAGA,-0.202
23,CACGGAGA,0.365
24,AACATGTT,-0.112
25,CGGGCACA,0.119

row,Sequence,PBM E-score
1,GCCGATAA,0.449
2,CTCCAGGA,-0.152
3,CGACCGCC,0.0587
4,TAAAATCA,-0.0975
5,ACGGCGGG,0.239
6,CGGGGCGC,0.26
7,GGAGCAAA,0.0477
8,CAAGCCTC,0.00557
9,TTCAGAAA,-0.227
10,AACAGGCC,-0.0916
11,ATGTAATG,0.0908
12,CCAAACCC,0.0606
13,GTTTCCAA,-0.238
14,AGTCCCTA,-0.145
15,GGGTCAAA,0.0274
16,ATGCGCAG,-0.0423
17,ATAGGATA,-0.00923
18,ACGTATAG,-0.0719
19,AACTTACC,0.0748
20,GACTAAAA,0.126
21,CTAACAAC,-0.182
22,ACGGATCA,0.191
23,CCGGTATA,0.425
24,AAATTCTA,-0.166
25,GCTTTGCC,-0.0963

row,Sequence,PBM E-score
1,AGCGGCGA,0.247
2,AGTCAATA,-0.119
3,GCTTCCAA,-0.19
4,AAGGTTGT,-0.227
5,CCCGCACA,0.202
6,TTAACTAA,0.132
7,AACCTGGG,-0.199
8,GCAAAGTA,-0.0487
9,TCCCCACA,-0.303
10,AAAGCTTG,-0.272
11,GGGTTCTA,-0.091
12,AAAAGCCC,0.138
13,AGTGAGGA,-0.338
14,CCTTACCC,-0.0817
15,CTTCTATA,-0.226
16,CATACGAG,-0.141
17,AATACCCT,-0.0844
18,GCGCAGGA,-0.179
19,TCAGCTCA,0.044
20,CACTGACA,-0.233
21,CTGTTCAC,-0.257
22,CATCAATG,-0.178
23,CTCCGGTA,0.439
24,AAAGTCTG,-0.291
25,ACACCTGA,-0.135

row,Sequence,PBM E-score
1,ACAGGCAG,-0.205
2,GTTAGCGA,0.0395
3,AAGGAATC,-0.126
4,ATTACCCG,0.214
5,ATGCTTCC,0.00659
6,ACACGGCA,-0.064
7,CTCCGCTC,0.172
8,CCGGTGGC,0.286
9,AAGACGGT,-0.213
10,GCCTTCTA,-0.231
11,AGCCTCAA,-0.0717
12,ACCTTATC,0.139
13,AACTTCGT,-0.111
14,CCCACCCG,0.251
15,GTTTTTGA,-0.0624
16,ATGTACTC,-0.162
17,ACGGCATC,0.0908
18,ACCCAATG,-0.191
19,GTTGTGCA,-0.196
20,TCTTCACA,-0.146
21,CGCACAAC,-0.225
22,ATCTCCGA,0.486
23,ATGAAGCC,0.136
24,CACCTAGC,-0.0838
25,GTGATATA,-0.0427

row,Sequence,PBM E-score
1,ACTGAGTC,-0.0716
2,GGCCGCGA,0.0621
3,AGGAATTG,-0.193
4,ATCCCGGG,0.376
5,CCGAGTAG,0.26
6,CAGCTGAA,-0.292
7,GATGCTGA,-0.201
8,GACGCTAC,0.00346
9,ACGGAAAG,0.232
10,CTTACCAA,-0.171
11,CTATACCC,0.204
12,TGTCACAA,-0.177
13,ACTAACCT,0.00719
14,CGGACGAG,0.387
15,AATGAATA,-0.157
16,GTACCGCA,0.236
17,CCAACACG,-0.161
18,GCCTGTCC,-0.0412
19,GGCCCCCA,-0.135
20,CTACTAGC,0.0698
21,ACGACCCC,-0.0829
22,ACAACAGT,-0.083
23,AACGGCAT,0.278
24,CAGATGAC,-0.0934
25,ACTCAAAC,-0.147

row,Sequence,PBM E-score
1,CTCAGCGC,-0.0355
2,GACTTACC,0.262
3,GGGGGGTA,0.047
4,AACAATTG,-0.342
5,CGTGAGAC,0.00208
6,GATCAACA,-0.284
7,AAACCTGG,-0.0932
8,CACGAGCA,-0.24
9,TCCGCAGA,0.205
10,ATCCGCGC,0.245
11,AATCTCGG,0.358
12,CATACATG,-0.244
13,AGAGGAAG,-0.236
14,GGGCGCGA,0.235
15,CTCCAAGC,-0.0834
16,CAGCCTCC,-0.111
17,ATGTTACG,-0.166
18,ACTCGCAA,-0.231
19,AAATCACG,-0.0297
